Test results from the supplement of paper PMC11417369.
± gives the standard deviation of the averaged measurements. Some of the results follow.

System: PfAP2-LT AP2 domain (GST-tagged)
Assay: gcPBM binding intensity (ln(normalized median fluorescence intensity)); higher = stronger DNA binding
Summary of the method: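 For binding intensity, the highest Masliner-normalised natural-log median intensity across replicate spots of either probe orientation was taken. Protein bound to the array was stained with Alexa488 anti-GST antibody and scanned at 488 nm. The protein, GST-tagged P. falciparum DNA-binding domains from E. coli at about 25 μg on average, had been applied for 1 h to an Agilent 4 × 180k array of primer-extended double-stranded 36-bp intergenic genomic probes and negative controls.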

| Sequence | gcPBM binding intensity (ln) |
| --- | --- |
| ATATTTTTGTTCAGGAGTACAGTTCAAGATGAAAAT [XGTACX_site4178] | 8.64 ± 0.42 |
| TTTGGGATATTTACAGTGCAAAGATATTTTTATAAT | 8.46 ± 0.45 |
| TTTTTTATATATGTGTGTGTGTGTGTGTCAAGTTTA [GTGCAC_negctrl_site460] | 10.3 ± 0.24 |
| ATAACATAATAGCAACAATTTATTTCCTCTATAACA [CACACA_negctrl_site243] | 8.56 ± 0.42 |
| TTTTAGTGAAATGAGTGTACATTATATATTTTTTTT [XGTACX_site4892] | 8.54 ± 0.39 |
| ATTCTATATATATAAACACACAAATATTTTTATATA [CACACA_site1677] | 8.63 ± 0.48 |
| AAGACTAATCTAGGTAGTACTTATATATCTTTATTT [XGTACX_site4572] | 8.63 ± 0.45 |
| ATATAAGGAAGGGATGCACACAAAAGGGTACATAAG [CACACA_site9328] | 9.28 ± 0.52 |
| AAAAATATAATATATCTAAAATTTTTCATTAAATAT [XGTACX_negctrl_site274] | 8.2 ± 0.52 |
| ACATATATATATTTATATATATATATATATATGTGA [CACACA_negctrl_site613] | 8.96 ± 0.39 |
| TTATATATAGAATAAACATGCATTTGTATATGAATA [TGCATGCA_site604] | 8.55 ± 0.5 |
| ATAAATAAAAATACATGAACAGGTCAGGTTATTTTT [CACACA_negctrl_site1007] | 8.69 ± 0.45 |
| TTTTTTTTTTTTTTTACACACTATAGGGAAAAAAAA [CACACA_site1916] | 8.21 ± 0.37 |
| TCATATTAATTTGATAGTACATATACTTTGAAGTCC [XGTACX_site3767] | 8.61 ± 0.49 |
| TGTATATAAACAAGGGGTACAATAATATAAATAAAT [XGTACX_site8675] | 8.98 ± 0.51 |
| TCACATACATTACTTACACACCATATTAATATATAC [CACACA_site8047] | 9.01 ± 0.4 |
| AATAAAAAATAAAAAATAAACAGTATACATATATAT [GTGCAC_negctrl_site31] | 8.84 ± 0.37 |
| AACAGACATAGACACACACACATATATTTATTTATA [CACACA_site7571] | 9.7 ± 0.38 |
| TTTTTTAAATTTTGAATTATAACTACATTAAAGAAA [GTGCAC_negctrl_site279] | 7.87 ± 0.38 |
| ATGCAAATAATATAAAGTACACAACATCGCCCAAAG [XGTACX_site1825] | 9.37 ± 0.3 |
| CATTATGTCATAAATGCACACATATATATATACATA [CACACA_site8454] | 9.07 ± 0.31 |
| TATTTAAAAGTATATACACACAACTGGAATGAAAAG [CACACA_site4126] | 9.02 ± 0.41 |

| Sequence | gcPBM binding intensity (ln) |
| --- | --- |
| TATGTATGCCCTAATGCATGTGAACAAAATAATATA [TGCATGCA_site407] | 8.81 ± 0.47 |
| TATTTTAATCGTAAGTGTACTCTTTTAAGTATATGT [XGTACX_site8591] | 8.73 ± 0.47 |
| ATTATAACACCTCCCCCCCTTTTTTTATGAAGACCA [CACACA_negctrl_site1043] | 10.1 ± 0.4 |
| AAAATTAAAAAAATAAATACATTATATAATTAAAAA [CACACA_negctrl_site1426] | 8.41 ± 0.47 |
| TTTATTAGATAACGATAAACGAAAAAAAAAAAATAA [GTGCAC_negctrl_site81] | 8.54 ± 0.57 |
| ATAATATAAATAAAGCGTACTTAATTTTATATATAT [XGTACX_site4626] | 8.61 ± 0.37 |
| TGTTGTAACAAAAGTACACACACATTTCTATAAATT [CACACA_site8894] | 9.1 ± 0.35 |
| ATTACATAACAATATACACACTATTGATTAAAGAGA [CACACA_site5602] | 8.97 ± 0.42 |
| AAATATATTATATTTAGTACGCATATATAATATGCA [XGTACX_site4835] | 8.49 ± 0.48 |
| ATGAAAATTTATATTGCACACATAGGGAATAAAAAA [CACACA_site8667] | 9.03 ± 0.36 |
| AGTTAATTAATAGGCACACATATATATGTATAAATA [CACACA_site523] | 9.02 ± 0.49 |
| GTAAGAATATTTATAAATGTATAATTTGTATTATTT [GTGCAC_negctrl_site667] | 8.6 ± 0.52 |
| ATCGAAATTTTAGAATATATATGATGTTACTTAAGT [GTGCAC_negctrl_site611] | 8.6 ± 0.35 |
| TAAAATATCATAGATAGTACATATAACGTTTTATAT [XGTACX_site5666] | 8.76 ± 0.42 |
| CATGACATAAAAAATATACACACTATAATATATATA [CACACA_site1402] | 8.96 ± 0.4 |
| TATATATCTATATTTACACACAGTTACTATGTAGAT [CACACA_site7532] | 9.05 ± 0.42 |
| GTTAAACTTAATATCGGTACACACACAAGATAAGAA [XGTACX_site1660] | 9.27 ± 0.54 |
| ATAATATGTATAATCACACATTTTTCTTTTAAGACA [CACACA_site5297] | 8.7 ± 0.42 |
| ACCATATAAATAAACACACACACACCCATATATATA [CACACA_site2321] | 10 ± 0.36 |
| GGTTCATTAAAGTGTACACATAAATACCGTAACATT [CACACA_site6002] | 9 ± 0.47 |
| CTAAGGTATGATTAATCACACACATAAATATATATA [CACACA_site8847] | 9.17 ± 0.59 |
| GTGGCTACTATATATTGTACGATATTATATATATAC [XGTACX_site8376] | 9.04 ± 0.39 |

| Sequence | gcPBM binding intensity (ln) |
| --- | --- |
| AGAATAAGAATTATTAGTACTTATAAATATTATATT [XGTACX_site7228] | 8.51 ± 0.58 |
| CTATTACATTAAATGTGTACATATATATATATATAT [XGTACX_site5233] | 9.49 ± 0.28 |
| TAATTTAAAATATATAGTACACACGTGAACACAAAT [XGTACX_site792] | 9.01 ± 0.38 |
| GTAAATACACATATGTGTACATATATATATATATAT [XGTACX_site3696] | 9.67 ± 0.31 |
| TCATCATGTATGTACACACATACATATATTATGTAC [CACACA_site1386] | 9.15 ± 0.32 |
| CTTTTTGAAATATTAACACACATTTTGTTAATGAAT [CACACA_site6087] | 8.67 ± 0.4 |
| TATAAGTAGATAAGGGTGCACAATATAAATATATAG | 9.13 ± 0.61 |
| GGTTAGACGAAATATACATGCAATGGAAAATAAGTT [TGCATGCA_site23] | 9.16 ± 0.49 |
| ATATTAATTTCTCATGCATGTTCTTCCCAATTGTAA [TGCATGCA_site425] | 8.94 ± 0.42 |
| GGAATAAAGACAGCACGTACATATCTTACGAAGCTC [XGTACX_site3918] | 8.86 ± 0.49 |
| CACAAGAAAATTCACACACACACATATATATATATA [CACACA_site3880] | 10.2 ± 0.14 |
| TCCTTAATTCAAAAAATAATATCTTATATTTCAAAT [CACACA_negctrl_site1592] | 8.12 ± 0.48 |
| TGCATTATATTAAATTTTTTATTTGTTGATGTTATA [GTGCAC_negctrl_site371] | 8.57 ± 0.47 |
| TGAAATAAAATTTGTACACACATATTTATTTATATA [CACACA_site6421] | 8.75 ± 0.44 |
| AAATAAAAGATATTTTTACACACTTTTGATGAGATC [CACACA_site9000] | 8.66 ± 0.42 |
| TATTTTTTTTGTCATATATAAGAAACGCTCTTCTTT [TGCATGCA_negctrl_site127] | 8.49 ± 0.47 |
| ATATTTATATTTTCATGTACGTATTTTTATATATAT [XGTACX_site8478] | 9.03 ± 0.4 |
| TATAGATATATACGGTGTACATACATAAAAAAAAAA [XGTACX_site1648] | 8.81 ± 0.59 |
| ATTTTTATTAGTTATTGTACTTATTATTTATTAATT [XGTACX_site2568] | 8.85 ± 0.45 |
| TATAGTCAACTAGTCACACATATAATTATATATATA [CACACA_site5872] | 8.76 ± 0.4 |
| TATAAAGAAATCATTACACACAAATAAATACATACA [CACACA_site2675] | 9.13 ± 0.38 |
| ATATATATACATATAACACACACATATATATATATA [CACACA_site8827] | 9.54 ± 0.42 |

| Sequence | gcPBM binding intensity (ln) |
| --- | --- |
| TAATTCACATTTTATACACACATTCGAACCTTTTTT [CACACA_site3341] | 9.18 ± 0.55 |
| TTGTATTTATTTATGGGAGGATTATAATCATTGTAG [GTGCAC_negctrl_site268] | 8.62 ± 0.37 |
| GTTATACACATATATACACACATATGTAGATATATA [CACACA_site7529] | 9.09 ± 0.26 |
| TTGATATCTTTTTTTTGTACATATATTTATAAGTAA [XGTACX_site3538] | 8.49 ± 0.35 |
| AAAATATAAGCCACTACACACATATATAAATGTATA [CACACA_site2639] | 9.16 ± 0.35 |
| TTTTAGAGTGATATATATTAACTTTTAATAAAAAAA [CACACA_negctrl_site611] | 8.1 ± 0.49 |
| TTTTTTTAAATTATATGTACATAATTTTAATTTTAT [XGTACX_site5086] | 8.54 ± 0.52 |
| ATACATATATTTTTATGTACATATATTTTTTTTGTA [XGTACX_site4546] | 8.74 ± 0.47 |
| TAAAGTACAGGAGTAAATTGAAAAAAAAAAAAAAAA [CACACA_negctrl_site1410] | 8.5 ± 0.57 |
| TATAATATTCCTTTTTAACACACATATGAACAAATA [CACACA_site7932] | 8.62 ± 0.41 |
| ATAAATAAATAAATACGTACATATATATATATATAT [XGTACX_site8838] | 9.53 ± 0.042 |
| TTACCTATTCTAAAATGTACACATTATATATGTGCT [XGTACX_site5776] | 9.04 ± 0.5 |
| ACATGTTTCATATGTTGTACTAACTTAAATATAAAT [XGTACX_site6412] | 8.61 ± 0.48 |
| AACACTCAAAAAAATTTAAATAAAAAAAAAAAAAAA [CACACA_negctrl_site680] | 8.31 ± 0.59 |
| TATGGAAGAAAATATACACACAAAAAAAAAAAATGG [CACACA_site4924] | 9.12 ± 0.41 |
| ATGATTTTTTTTATTTTTTAGCTAGAGCTAGCTTAT [CACACA_negctrl_site433] | 8.62 ± 0.52 |
| ATATGTTAAAAATTCACACAAAAAAGTATACAGATA [CACACA_site4179] | 8.99 ± 0.4 |
| TATGAATGCTTTTATGCACACGTACAAAAATATTAT [CACACA_site8851] | 8.88 ± 0.37 |
| TTAACTATAATAAAATGTACATATGTAACATATATA [XGTACX_site7790] | 8.66 ± 0.4 |
| TTATAACAAAAAATTAAAGAAAGAGAATAAGTGAAA [CACACA_negctrl_site975] | 8.62 ± 0.5 |
| AGGTCCTACACCAATAAATATCATATATATATTATA [CACACA_negctrl_site568] | 8.62 ± 0.45 |
